Our source for the activity change, negative = inhibition values is PubChem BioAssay AID1745853 (National Center for Advancing Translational Sciences (NCATS), 2022).

What all share (test): Primary Screen for Target Class Profiling of Small Molecule Inhibitors of Methyltransferases
In experiment [1] the target is Glycine N-methyltransferase (Homo sapiens) (UniProt Q14749). The conditions noted are these: purified enzyme, MTase-Glo SAH luminescence; measured here: GNMT inhibition; at 40 µM; stronger effect = lower value. The gist of the method: (§1)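 Each enzyme was reacted with SAM and its substrate, with compounds tested once at 40 uM; SAH formed was read by MTase-Glo luminescence.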
The target in experiment [2] is Guanidinoacetate N-methyltransferase (Homo sapiens) (UniProt Q14353). The following applies: purified enzyme, MTase-Glo SAH luminescence; measured here: GAMT inhibition; at 40 µM; stronger effect = lower value. The gist of the method: as §1
For experiment [3], the target named is Histamine N-methyltransferase (Homo sapiens) (UniProt P50135). The conditions noted are these: purified enzyme, MTase-Glo SAH luminescence; measured here: HNMT inhibition; at 40 µM; stronger effect = lower value. Summed up:
as §1

The target in experiment [4] is Nicotinamide N-methyltransferase (Homo sapiens) (UniProt P40261). The conditions noted are these: purified enzyme, MTase-Glo SAH luminescence; measured here: NNMT inhibition; at 40 µM; stronger effect = lower value. Summed up:
as §1

In experiment [5] the target is Phenylethanolamine N-methyltransferase (Homo sapiens) (UniProt P11086). The conditions noted are these: purified enzyme, MTase-Glo SAH luminescence; measured here: PNMT inhibition; at 40 µM; stronger effect = lower value. The gist of the method: as §1

This is one part of the list. These are further read-outs of the screen, such as a control signal, another cell line or another target. No call is given for them.
% is set by controls: 0 for no effect and ±100 for the full control effect.

For `FC(F)(F)c1cccc(-c2nccn3c(C4CN(Cc5ccc6cn[nH]c6c5)C4)ncc23)c1`, the activity change, negative = inhibition was -16.3% in experiment [1]; -0.7% in experiment [2]; -62.2% in experiment [3]; -25.5% in experiment [4]; -1.64% in experiment [5].

On to `O=C(O)Cn1nnc(-c2ccc(CN(CCCCOc3ccc(CN4CCCC4)cc3)CCc3ccccc3)cc2)n1`, for which the activity change, negative = inhibition in experiment [1] was 3.42%; in experiment [2], 27.7%; in experiment [3] it was -58.3%; in experiment [4] it was 4.23%; in experiment [5], 10.3%.

As to `O=C(O)C1=CC(=C(c2ccc(O)c(C(=O)O)c2)c2ccc(O)c(C(=O)O)c2)C=CC1=O`, the activity change, negative = inhibition was -82.5% in experiment [1]; -17.5% in experiment [2]; -23.3% in experiment [3]; -14.9% in experiment [4]; -4.42% in experiment [5].

Take `COc1ccc(NC(=O)CSc2nnc3n(CC(C)C)c(=O)c4ccc(Cl)cc4n23)cc1`: the activity change, negative = inhibition in experiment [1] is -8.17%; in experiment [2], 0.245%; in experiment [3], -5.35%; in experiment [4], -10.3%; in experiment [5] it was -4.3%.

Turning to `CCN1C(=O)c2cc3ccccc3n2CC1(C)C(=O)NCC(=O)NCc1ccc(C)o1` (stereo not given), the activity change, negative = inhibition in experiment [1] was -1.5%; in experiment [2], 0%; in experiment [3], 5.19%; in experiment [4], -4.04%; in experiment [5], 0.058%.

For `COc1ccc(N(C(=O)Nc2c(C)cccc2C)c2cc(Nc3ccc(N4CCN(C)CC4)cc3)ncn2)c(OC)c1`, the activity change, negative = inhibition in experiment [1] was -12.8%; in experiment [2], -0.59%; in experiment [3], -38.4%; in experiment [4], -50.1%; in experiment [5], -7.03%.

Turning to `CCCNc1cc(N2CCC(CCC(=O)NCCN3CCCCCC3)CC2)ncn1`, the activity change, negative = inhibition in experiment [1] was -11.4%; in experiment [2] it was -3.83%; in experiment [3], -55.4%; in experiment [4], -49.8%; in experiment [5], -61.7%.

As to `CCCN1CCC[C@@H](c2cccc(S(C)(=O)=O)c2)C1`, the activity change, negative = inhibition in experiment [1] was -0.391%; in experiment [2] it was 0.359%; in experiment [3], 0.036%; in experiment [4] it was -12.2%; in experiment [5], -3.97%.

Take `COc1ccc(C(C)NC(=O)c2cc3n(n2)CC(c2ccc(Cl)cc2)OC3)cc1OC` (stereo not given): the activity change, negative = inhibition in experiment [1] is -11.7%; in experiment [2], -2.56%; in experiment [3], -0.844%; in experiment [4] it was -4.67%; in experiment [5] it was 0.893%.

For the compound `COCCOCC(=O)N1CCCN(Cc2ccncc2)C(c2ccccc2)CC(=O)NCC1` (stereo not given), the activity change, negative = inhibition was -7.68% in experiment [1]; -10.1% in experiment [2]; -6.39% in experiment [3]; -15.2% in experiment [4]; -6.61% in experiment [5].

Consider `CCCn1c(=O)c2ccc(C(=O)NC3CCCC3)cc2n2c(=O)n(CC(=O)Nc3ccc(CC)cc3)nc12`, for which the activity change, negative = inhibition in experiment [1] turned out to be 3.39%; in experiment [2], 0%; in experiment [3], 6.27%; in experiment [4], 3.6%; in experiment [5], 4.32%.

Consider `CCC(C)NC(=O)c1ccc2c(=O)n(C)c3nn(Cc4ccc(Cl)cc4)c(=O)n3c2c1` (stereo not given), for which the activity change, negative = inhibition is -1.09% in experiment [1]; 0.563% in experiment [2]; 5.56% in experiment [3]; -4.03% in experiment [4]; 1.42% in experiment [5].

Take `CCc1cccc(N2C(=O)c3c(C(=O)OC)ncn3CC2(C)C(=O)NC2CCCCC2)c1` (stereo not given): the activity change, negative = inhibition in experiment [1] came to 3.89%; in experiment [2] it was 0%; in experiment [3] it was 3.71%; in experiment [4], 9.38%; in experiment [5], 4.11%.

For `Cc1ccccc1CN1C[C@H](O)C[C@H]1c1nc(C2CC2)no1`, the activity change, negative = inhibition in experiment [1] was -1.59%; in experiment [2] it was -2.16%; in experiment [3], 0.909%; in experiment [4], -8.36%; in experiment [5], -2.08%.

On to `CCOCCCNc1nc2c(-c3ccc(Cl)cc3)nnn2c2ccccc12`, for which the activity change, negative = inhibition in experiment [1] turned out to be 4.03%; in experiment [2], 0.318%; in experiment [3], 10.3%; in experiment [4], 12.8%; in experiment [5] it was 1.63%.

For the compound `O=C(OCc1ccccc1O[C@@H]1O[C@H](CO)[C@@H](O)[C@H](O)[C@H]1O)C1(O)C=CCCC1O` (stereo not given in full), the activity change, negative = inhibition in experiment [1] is 2.57%; in experiment [2], 3.58%; in experiment [3] it was 7.03%; in experiment [4] it was -9.49%; in experiment [5], 6.11%.

As for `COc1ccc2cc3n(c2c1)CC(C)(C(=O)NC1CCCCC1)N(Cc1cccnc1)C3=O` (stereo not given), the activity change, negative = inhibition amounted to 2.56% in experiment [1]; 4.94% in experiment [2]; 7.32% in experiment [3]; 1.36% in experiment [4]; 2.19% in experiment [5].

Turning to `CCC(C(=O)NCc1ccc(F)cc1)n1ccc2cc(S(=O)(=O)N3CCCCC3)ccc21` (stereo not given), the activity change, negative = inhibition in experiment [1] was found to be 9.49%; in experiment [2] it was 0.976%; in experiment [3] it was 7.7%; in experiment [4], 8.27%; in experiment [5], 7.18%.

Take `Brc1cc2c(cc1[C@H]1Nc3ccccc3[C@H]3C=CC[C@H]31)OCO2`: the activity change, negative = inhibition in experiment [1] was -0.735%; in experiment [2] it was 10.5%; in experiment [3] it was 4.56%; in experiment [4], -8.67%; in experiment [5] it was 1.57%.

Consider `COc1ccc(CNC(=O)Cn2ccc3cc(S(=O)(=O)N4CCC(C)CC4)ccc32)cc1OC`, for which the activity change, negative = inhibition was -4.77% in experiment [1]; 4.92% in experiment [2]; -1.51% in experiment [3]; -0.598% in experiment [4]; 2.63% in experiment [5].

Regarding `Cc1ccc(NC(=O)CSc2nnc3n(CCC(C)C)c(=O)c4ccccc4n23)cc1C`, the activity change, negative = inhibition in experiment [1] was -4.83%; in experiment [2], 3.71%; in experiment [3] it was 3.44%; in experiment [4], 0.681%; in experiment [5] it was 0.334%.

Regarding `Cc1cccc(CN2C(=O)c3ccc(-c4ccco4)n3CC2(C)C(=O)NC2CCCCCCC2)c1` (stereo not given), the activity change, negative = inhibition in experiment [1] was -16%; in experiment [2], 4.55%; in experiment [3], -10.5%; in experiment [4] it was -18.3%; in experiment [5] it was -3.75%.

With `Cc1nc(C)c(C(=O)N2CCC(Cc3nc(C4CC4)n[nH]3)CC2)s1`, the activity change, negative = inhibition in experiment [1] is -2.65%; in experiment [2] it was -1.53%; in experiment [3], 0.765%; in experiment [4], 0.36%; in experiment [5], -2.67%.

Regarding `CCOCCCN1C(=O)c2cc3oc(C)cc3n2CC1(C)C(=O)NC1CCCCCC1` (stereo not given), the activity change, negative = inhibition worked out at 3.72% in experiment [1]; 1.52% in experiment [2]; 9.82% in experiment [3]; 0.619% in experiment [4]; 2.47% in experiment [5].

With `O=C(NCCCCCCNC(=O)c1cccnc1)c1cccnc1`, the activity change, negative = inhibition is -1.74% in experiment [1]; 1.14% in experiment [2]; 1.21% in experiment [3]; 5.86% in experiment [4]; -5.56% in experiment [5].

With `COc1ccc(-c2cc3n(n2)CC(C)(C(=O)NCc2ccccc2)N(c2ccc(C)c(Cl)c2)C3=O)cc1` (stereo not given), the activity change, negative = inhibition in experiment [1] was 4.34%; in experiment [2], 0.995%; in experiment [3], 6.21%; in experiment [4], 4.33%; in experiment [5], 0.577%.

Consider `O[C@@H]1CCN(Cc2nc(C3(O)CCN(Cc4ccccc4F)CC3)cs2)C1`, for which the activity change, negative = inhibition in experiment [1] was -2.84%; in experiment [2], -4.12%; in experiment [3], -3.51%; in experiment [4] it was -8.19%; in experiment [5], -7.69%.

`CC(C)NC(=O)N1CCC(Oc2ccccc2)C1` (stereo not given): the activity change, negative = inhibition in experiment [1] is -2.47%; in experiment [2] it was -6.96%; in experiment [3] it was -8.45%; in experiment [4], -18.9%; in experiment [5] it was -3.78%.

Take `COc1ccc(CNC(=O)CCc2nnc3n(Cc4ccc(F)cc4)c(=O)c4ccccc4n23)cc1`: the activity change, negative = inhibition was -10.3% in experiment [1]; 3.03% in experiment [2]; -3.99% in experiment [3]; -0.199% in experiment [4]; -8.75% in experiment [5].

As for `COCCNC(=O)Cn1c(=O)oc2cc(S(=O)(=O)N3CC(C)CC(C)C3)ccc21` (stereo not given), the activity change, negative = inhibition in experiment [1] came out at 0.718%; in experiment [2] it was 0%; in experiment [3], 4.28%; in experiment [4], 15.6%; in experiment [5], 1.51%.
